# In the supplement of paper PMC8728848:
# The list shows a part of the results.
# B1: SP16664B-bot-474-25-474 (Bacteroides ovatus) (protein)
# chain: CEEDIEIGNKIDESSYLASTQLSGLLLDENTNKNSSVIELRNNEYSTNVVFRLSKLPQKGVDVQIAVEESYAAIYNTIHETDFEVFPAANVKIANNGTFVLAPDDKVTPSVKVTLTAFDGMEEDKTYIVPLTVTSSTEGVTFTETSKHMVLLVQDYRNKPNTNKGEDAVQTVLYFEVNDTNPLNALEFLTESGKYFFDHIVLFAANINWDPEKQRVYLANNENVQFLLDNNDKYLQPLRKAGMKIIISILGNHDEAGVAQLSDMGAREFARELAAYCRAYNLDGVAFDDEYSNSPDLSNPWLASPSAYAGSRLMYECKAVMPEKIVSLYNLGNMYSSSLQVIDGIEPGQYCDYAVADYGGAAGPGTGMTLKQCAGMSIELRRGSGNSSESTARSRKEAGYGYYMFFALDPSLYGSQVYRCQSVCKGLYDETLVYPSYYYKKNSTEREAIN
# How the values were obtained:
# Assay in all cases: glycan array binding signal (z-score within array); higher = stronger binding
# Details in all cases: glycan notation: IUPAC condensed, linker removed
# [1] = target: Neu5Ac(a2-3)Gal(b1-4)GlcNAc(b1-3)Gal(b1-4)GlcNAc(b1-2)Man(a1-3)[Neu5Ac(a2-3)Gal(b1-4)GlcNAc(b1-3)Gal(b1-4)GlcNAc(b1-2)Man(a1-6)]Man(b1-4)GlcNAc(b1-4)GlcNAc
# In short: (§1)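 Negative Z-scores can be read as non-binding. The Z-score is calculated within each array and then averaged across arrays of one protein sequence at different concentrations or buffers and across linkers. Arrays, 3228 in all, were curated from the Consortium for Functional Glycomics database and kept only where the protein sequence was available.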
# [2] = target: Neu5Ac(a2-3)Gal(b1-4)GlcNAc(b1-3)Gal(b1-4)GlcNAc(b1-3)Gal(b1-4)GlcNAc
# In short: as §1
# [3] = target: Neu5Ac(a2-3)Gal(b1-4)GlcNAc(b1-3)Gal(b1-4)GlcNAc(b1-3)Gal(b1-4)GlcNAc(b1-2)Man(a1-3)[Neu5Ac(a2-3)Gal(b1-4)GlcNAc(b1-3)Gal(b1-4)GlcNAc(b1-3)Gal(b1-4)GlcNAc(b1-2)Man(a1-6)]GalNAc
# In short: as §1
# [4] = target: Neu5Ac(a2-3)Gal(b1-4)GlcNAc(b1-3)Gal(b1-4)GlcNAc(b1-3)GalNAc
# In short: as §1
# [5] = target: Neu5Ac(a2-3)Gal(b1-4)GlcNAc(b1-3)Gal(b1-4)GlcNAc(b1-3)[Neu5Ac(a2-3)Gal(b1-4)GlcNAc(b1-3)Gal(b1-4)GlcNAc(b1-6)]GalNAc
# In short: as §1
# [6] = target: Neu5Ac(a2-3)Gal(b1-4)GlcNAc(b1-3)Gal(b1-4)GlcNAc(b1-6)[Gal(b1-3)]GalNAc
# In short: as §1
# [7] = target: Neu5Ac(a2-3)Gal(b1-4)GlcNAc(b1-3)Gal(b1-4)[Fuc(a1-3)]GlcNAc
# In short: as §1
# [8] = target: Neu5Ac(a2-3)Gal(b1-4)GlcNAc(b1-3)GalNAc
# In short: as §1
# [9] = target: Neu5Ac(a2-3)Gal(b1-4)GlcNAc(b1-3)[Neu5Ac(a2-3)Gal(b1-4)GlcNAc(b1-6)]GalNAc
# In short: as §1
# [10] = target: Neu5Ac(a2-3)Gal(b1-4)GlcNAc(b1-6)GalNAc
# In short: as §1
# [11] = target: Neu5Ac(a2-3)Gal(b1-4)GlcNAc(b1-6)[Gal(b1-3)]GalNAc
# In short: as §1
# [12] = target: Neu5Ac(a2-3)Gal(b1-4)GlcNAc(b1-6)[Neu5Ac(a2-3)Gal(b1-3)]GalNAc
# In short: as §1
# [13] = target: Neu5Ac(a2-3)Gal(b1-4)GlcNAc6S
# In short: as §1
# [14] = target: Neu5Ac(a2-3)Gal(b1-4)[Fuc(a1-3)]GlcNAc
# In short: as §1
# [15] = target: Neu5Ac(a2-3)Gal(b1-4)[Fuc(a1-3)]GlcNAc(b1-2)Man
# In short: as §1
# [16] = target: Neu5Ac(a2-3)Gal(b1-4)[Fuc(a1-3)]GlcNAc(b1-3)Gal
# In short: as §1
# [17] = target: Neu5Ac(a2-3)Gal(b1-4)[Fuc(a1-3)]GlcNAc(b1-3)Gal(b1-4)GlcNAc
# In short: as §1
# [18] = target: Neu5Ac(a2-3)Gal(b1-4)[Fuc(a1-3)]GlcNAc(b1-3)Gal(b1-4)[Fuc(a1-3)]GlcNAc(b1-3)Gal(b1-4)[Fuc(a1-3)]GlcNAc
# In short: as §1
# [19] = target: Neu5Ac(a2-3)Gal(b1-4)[Fuc(a1-3)]GlcNAc(b1-3)GalNAc
# In short: as §1
# [20] = target: Neu5Ac(a2-3)Gal(b1-4)[Fuc(a1-3)]GlcNAc(b1-6)[Gal(b1-3)]GalNAc
# In short: as §1
# [21] = target: Neu5Ac(a2-3)Gal(b1-4)[Fuc(a1-3)]GlcNAc(b1-6)[Neu5Ac(a2-3)Gal(b1-3)]GalNAc
# In short: as §1
# [22] = target: Neu5Ac(a2-3)Gal(b1-4)[Fuc(a1-3)]GlcNAc6S
# In short: as §1
# [23] = target: Neu5Ac(a2-3)Gal6S(b1-4)GlcNAc
# In short: as §1
# [24] = target: Neu5Ac(a2-3)Gal6S(b1-4)[Fuc(a1-3)]GlcNAc
# In short: as §1
# [25] = target: Neu5Ac(a2-3)GalNAc
# In short: as §1
# [26] = target: Neu5Ac(a2-3)GalNAc(b1-4)GlcNAc
# In short: as §1
# [27] = target: Neu5Ac(a2-3)[GalNAc(b1-4)]Gal(b1-4)Glc
# In short: as §1
# [28] = target: Neu5Ac(a2-3)[GalNAc(b1-4)]Gal(b1-4)GlcNAc
# In short: as §1
# [29] = target: Neu5Ac(a2-3)[GalNAc(b1-4)]Gal(b1-4)GlcNAc(b1-3)GalNAc
# In short: as §1
# [30] = target: Neu5Ac(a2-3)[Neu5Ac(a2-6)]GalNAc
# In short: as §1
# [31] = target: Neu5Ac(a2-6)Gal
# In short: as §1
# [32] = target: Neu5Ac(a2-6)Gal(b1-3)GlcNAc(b1-3)[Gal(b1-4)GlcNAc(b1-6)]Gal(b1-4)Glc
# In short: as §1
# [33] = target: Neu5Ac(a2-6)Gal(b1-4)Glc
# In short: as §1
# [34] = target: Neu5Ac(a2-6)Gal(b1-4)GlcNAc
# In short: as §1
# [35] = target: Neu5Ac(a2-6)Gal(b1-4)GlcNAc(b1-2)Man
# In short: as §1
# [36] = target: Neu5Ac(a2-6)Gal(b1-4)GlcNAc(b1-2)Man(a1-3)Man(b1-4)GlcNAc(b1-4)GlcNAc
# In short: as §1
# [37] = target: Neu5Ac(a2-6)Gal(b1-4)GlcNAc(b1-2)Man(a1-3)[Gal(b1-4)GlcNAc(b1-2)Man(a1-6)]Man(b1-4)GlcNAc(b1-4)GlcNAc
# In short: as §1
# [38] = target: Neu5Ac(a2-6)Gal(b1-4)GlcNAc(b1-2)Man(a1-3)[GlcNAc(b1-2)Man(a1-6)]Man(b1-4)GlcNAc(b1-4)GlcNAc
# In short: as §1
binder,measurement,setting,value
B1,glycan array binding signal (z-score),[1],0.905
same,glycan array binding signal (z-score),[2],-0.276
same,glycan array binding signal (z-score),[3],0.899
same,glycan array binding signal (z-score),[4],0.067
same,glycan array binding signal (z-score),[5],0.172
same,glycan array binding signal (z-score),[6],-0.297
same,glycan array binding signal (z-score),[7],-0.159
same,glycan array binding signal (z-score),[8],-0.138
same,glycan array binding signal (z-score),[9],-0.587
same,glycan array binding signal (z-score),[10],-0.362
same,glycan array binding signal (z-score),[11],-0.456
same,glycan array binding signal (z-score),[12],-0.44
same,glycan array binding signal (z-score),[13],-0.718
same,glycan array binding signal (z-score),[14],-0.162
same,glycan array binding signal (z-score),[15],-0.268
same,glycan array binding signal (z-score),[16],-0.583
same,glycan array binding signal (z-score),[17],-0.465
same,glycan array binding signal (z-score),[18],0.057
same,glycan array binding signal (z-score),[19],0.253
same,glycan array binding signal (z-score),[20],0.544
same,glycan array binding signal (z-score),[21],0.158
same,glycan array binding signal (z-score),[22],-0.402
same,glycan array binding signal (z-score),[23],-0.537
same,glycan array binding signal (z-score),[24],-0.312
same,glycan array binding signal (z-score),[25],-0.346
same,glycan array binding signal (z-score),[26],-0.065
same,glycan array binding signal (z-score),[27],-0.205
same,glycan array binding signal (z-score),[28],-0.21
same,glycan array binding signal (z-score),[29],0.051
same,glycan array binding signal (z-score),[30],-0.511
same,glycan array binding signal (z-score),[31],0.54
same,glycan array binding signal (z-score),[32],-0.216
same,glycan array binding signal (z-score),[33],-0.109
same,glycan array binding signal (z-score),[34],0.101
same,glycan array binding signal (z-score),[35],-0.198
same,glycan array binding signal (z-score),[36],-0.046
same,glycan array binding signal (z-score),[37],0.54
same,glycan array binding signal (z-score),[38],-0.166
